# Hit rate of the full screen: of about 340,000 compounds, fewer than 10 were called active. The inconclusive results got no clear call from the source; some entries with a clear call stand among them for comparison. Calls come from the whole dose curve; as a rule, active = well fitted inhibition curve with a large enough effect in the main read-out, with a control signal flat (not every such curve was filed as active); inconclusive = small, poorly fitted or top-dose-only effect, or effect the other way, or a change in a side signal; inactive = no such curve, though single readings can be large or run the other way. Potencies beside an inconclusive call are fits to weak or partial responses and may not hold up. “Side channel” marks fits to a control or component signal instead of the main read-out.
# Molecular target: Tumor susceptibility gene 101 protein (Homo sapiens) (UniProt Q99816)
# Sequence of UniProt Q99816 (Q99816 whole entry, looked up): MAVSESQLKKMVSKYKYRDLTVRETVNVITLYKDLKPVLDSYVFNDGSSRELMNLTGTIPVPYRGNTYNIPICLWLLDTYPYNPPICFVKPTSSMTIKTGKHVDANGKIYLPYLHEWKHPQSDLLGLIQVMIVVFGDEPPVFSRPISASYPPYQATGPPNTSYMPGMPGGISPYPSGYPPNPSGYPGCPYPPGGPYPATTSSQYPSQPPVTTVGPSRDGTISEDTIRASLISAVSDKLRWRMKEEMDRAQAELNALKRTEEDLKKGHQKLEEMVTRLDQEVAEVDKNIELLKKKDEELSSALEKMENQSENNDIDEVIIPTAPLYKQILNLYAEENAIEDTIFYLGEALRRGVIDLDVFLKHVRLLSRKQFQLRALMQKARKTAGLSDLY
# Assay: qHTS Assay for Iinhibitors of HIV-1 Budding by Blocking the Interaction of PTAP/TSG101
# Conditions: Fluorescence polarization, FITC-PTAP peptide / Tsg101 binding; series mostly up to 115 µM
# Summary of the method: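 FP read-out: FITC-PTAP peptide, 50 nM final, binding Tsg101 binding domain, 10 uM final; 20 min, r.t.; 10 mM HEPES pH 7.5, 0.15 M NaCl, 0.01% Tween 20, 3 mM EDTA, 0.1 mM TCEP.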
# Potency is the fitted concentration of half-maximal effect; tags give direction and shape of the fitted curve or compound fluorescence and quenching.
row,SMILES,Potency
1,CC1=CS/C(=C(/C#N)C(=O)NCc2ccco2)N1c1ccccc1,inactive
2,Cc1nc(Nc2ccc(S(=O)(=O)N3CCCCC3C)cc2)c2nnn(Cc3ccccc3)c2n1 (centres undefined),"inconclusive: 79.4 µM [falling, partial curve, poor fit]"
3,Cc1cc(-c2ccccc2)c2c3c(c(-c4ccccc4)n2n1)c(=O)n(C)c(=O)n3C,"inconclusive: 56.2 µM [fluorescent, side channel, partial curve, poor fit]"
4,CCOc1ccc(C2=Nc3ccccc3C(c3ccc(N4CCOCC4)cc3)=NN2)cc1,inactive
5,COC(=O)C[n+]1cccc2ccccc21,"inconclusive: 56.2 µM [fluorescent, partial curve, poor fit]"
6,Cc1c(OCc2ccc(C(=O)O)cc2)ccc2c(-c3ccccc3)cc(=O)oc12,inactive
7,CCN1/C(=C/c2ccc3ccccc3[n+]2CC)C=Cc2ccccc21,"inconclusive: 56.2 µM [quencher, side channel, partial curve, poor fit]"
8,Cc1ccccc1C(=O)N=c1ccn(-c2nc3ccccc3nc2NS(=O)(=O)c2ccc(F)cc2)cc1,"inconclusive: 89.1 µM [fluorescent, side channel, single point]"
9,CN1C(=O)/C(=C/C=C2\SCCN2C)OC1=S,"inconclusive: 56.2 µM [fluorescent, side channel, partial curve, poor fit]"
10,c1ccc(-n2ncc3c(N4CCCCC4)ncnc32)cc1,inactive
11,O=C(NCc1ccco1)c1cc(-c2ccccc2)nn1CC1CC(c2cccnc2)=NO1 (centres undefined),inactive
12,CCCCCCNC(=O)C(C#N)c1nc2ccccc2nc1N1CCCC1 (centres undefined),"inconclusive: 56.2 µM [fluorescent, side channel, partial curve, poor fit]"
13,CCOc1ccccc1C(C(=O)NC1CCCC1)N(Cc1ccco1)C(=O)CNC(=O)c1ccco1 (centres undefined),inactive
14,O=C1NC(=S)S/C1=C/c1ccc(N2CCOCC2)o1,"inconclusive: 44.7 µM [fluorescent, side channel, partial curve]"
15,CC1Sc2ccc(S(=O)(=O)CCC(=O)N3CCc4ccccc43)cc2NC1=O (centres undefined),inactive
16,Cc1ccc(/C=C2\Oc3c(ccc(O)c3CN3CCN(CCO)CC3)C2=O)cc1,"inconclusive: 56.2 µM [fluorescent, side channel, partial curve, poor fit]"
17,COC(=O)COc1cc(OCC(=O)OC)c2c(-c3ccccc3)cc(=O)oc2c1,inactive
18,COC(=O)C1=C(C(=O)OC)C(c2cc(Br)ccc2O)c2sc(=O)[nH]c2S1 (centres undefined),inactive
19,COc1ccc(C2=CC(c3ccco3)n3ncnc3N2)cc1 (centres undefined),"inconclusive: 56.2 µM [fluorescent, side channel, partial curve, poor fit]"
20,COc1cc(/C=C2\SC(=Nc3ccccc3)NC2=O)cc(Cl)c1O,"inconclusive: 56.2 µM [fluorescent, side channel, partial curve, poor fit]"

row,SMILES,Potency
1,Nc1ccc2c3c(cccc13)C(=O)N(c1ccccc1)C2=O,"inconclusive: 50.1 µM [fluorescent, side channel, partial curve, poor fit]"
2,CCCCCNC(=O)C(C#N)c1nc2ccccc2nc1N1CCCC1 (centres undefined),"inconclusive: 63.1 µM [fluorescent, side channel, partial curve, poor fit]"
3,CN1CC[n+]2c(CN3C(=O)c4ccccc4C3=O)csc21,inactive
4,Cc1ccc(CNC(=O)c2cccc3c2C(=O)c2ccc(N4CCCCC4)cc2S3(=O)=O)cc1,"inconclusive: 17.8 µM [fluorescent, side channel, full curve, poor fit]"
5,CCC1CCC(N2CCN(c3ccc(F)cc3)CC2)CC1 (centres undefined),inactive
6,Cc1cc(Cl)ccc1NC(=O)CN(C)C1=NS(=O)(=O)c2ccccc21,inactive
7,COc1ccc(N2C(=O)c3ccccc3NC2c2ccc(OC)c(COc3ccccn3)c2)cc1 (centres undefined),inactive
8,COc1ccc(CNC(=O)c2ccc(NC(=O)C3CCCO3)cc2)cc1 (centres undefined),inactive
9,COc1ccc(C(=O)c2sc3nc(C)cc(-c4cccs4)c3c2N)cc1OC,"inconclusive: 79.4 µM [fluorescent, side channel, partial curve]"
10,O=C(Oc1ccc[nH]c1=O)c1cc([N+](=O)[O-])cc([N+](=O)[O-])c1,"inconclusive: 89.1 µM [fluorescent, single point]"
11,CCC1(C)CC(c2nc(-c3ccc(OC)cc3)cs2)CCS1 (centres undefined),"inconclusive: 89.1 µM [fluorescent, side channel, single point]"
12,CCCOc1cc(N(CC)CC)ccc1/C=C(/C#N)c1nc2ccc(C)cc2[nH]1,"inconclusive: 31.6 µM [fluorescent, side channel, partial curve, poor fit]"
13,Clc1ccc(-c2nnc3sc(-c4ccc(Br)o4)nn23)cc1,"inconclusive: 56.2 µM [fluorescent, side channel, partial curve, poor fit]"
14,COc1ccc(C(=O)Nc2nc(-c3ccc([N+](=O)[O-])cc3)c(-c3ccc(OC)cc3)s2)cc1,"inconclusive: 79.4 µM [fluorescent, side channel, partial curve]"
15,COc1ccc(S(=O)(=O)Nc2ccccc2C(N)=O)cc1OC,inactive
16,N#CC(C(=O)NC1CC1)c1nc2ccccc2nc1N1CCN(C/C=C/c2ccccc2)CC1 (centres undefined),"inconclusive: 39.8 µM [fluorescent, side channel, full curve]"
17,CC(C)CCCCCCNC(=S)Nc1ccc(S(=O)(=O)N2CCOCC2)cc1,"inconclusive: 39.8 µM [quencher, side channel, partial curve, poor fit]"
18,COc1cc2c3nnc(-c4ccccc4)c-3cn(Cc3ccccc3F)c2cc1OC,"inconclusive: 56.2 µM [fluorescent, side channel, partial curve, poor fit]"
19,CC(=O)Nc1ccc2c(c1)Cc1ccc(Cl)cc1-2,"inconclusive: 100 µM [fluorescent, side channel, partial curve, poor fit]"
